{"source": "the supplement of paper PMC3334620", "note": "The full ranking holds about 33,000 sequences; the median of “E-score (-0.5 to 0.5)” is about -0.053, and the highest 2% start at about 0.37. This is one part of the list.", "data": [{"molecular_target": "Hap1 (UniProt P0CE41)", "sequence (P0CE41 whole entry, the tested form may be a part)": "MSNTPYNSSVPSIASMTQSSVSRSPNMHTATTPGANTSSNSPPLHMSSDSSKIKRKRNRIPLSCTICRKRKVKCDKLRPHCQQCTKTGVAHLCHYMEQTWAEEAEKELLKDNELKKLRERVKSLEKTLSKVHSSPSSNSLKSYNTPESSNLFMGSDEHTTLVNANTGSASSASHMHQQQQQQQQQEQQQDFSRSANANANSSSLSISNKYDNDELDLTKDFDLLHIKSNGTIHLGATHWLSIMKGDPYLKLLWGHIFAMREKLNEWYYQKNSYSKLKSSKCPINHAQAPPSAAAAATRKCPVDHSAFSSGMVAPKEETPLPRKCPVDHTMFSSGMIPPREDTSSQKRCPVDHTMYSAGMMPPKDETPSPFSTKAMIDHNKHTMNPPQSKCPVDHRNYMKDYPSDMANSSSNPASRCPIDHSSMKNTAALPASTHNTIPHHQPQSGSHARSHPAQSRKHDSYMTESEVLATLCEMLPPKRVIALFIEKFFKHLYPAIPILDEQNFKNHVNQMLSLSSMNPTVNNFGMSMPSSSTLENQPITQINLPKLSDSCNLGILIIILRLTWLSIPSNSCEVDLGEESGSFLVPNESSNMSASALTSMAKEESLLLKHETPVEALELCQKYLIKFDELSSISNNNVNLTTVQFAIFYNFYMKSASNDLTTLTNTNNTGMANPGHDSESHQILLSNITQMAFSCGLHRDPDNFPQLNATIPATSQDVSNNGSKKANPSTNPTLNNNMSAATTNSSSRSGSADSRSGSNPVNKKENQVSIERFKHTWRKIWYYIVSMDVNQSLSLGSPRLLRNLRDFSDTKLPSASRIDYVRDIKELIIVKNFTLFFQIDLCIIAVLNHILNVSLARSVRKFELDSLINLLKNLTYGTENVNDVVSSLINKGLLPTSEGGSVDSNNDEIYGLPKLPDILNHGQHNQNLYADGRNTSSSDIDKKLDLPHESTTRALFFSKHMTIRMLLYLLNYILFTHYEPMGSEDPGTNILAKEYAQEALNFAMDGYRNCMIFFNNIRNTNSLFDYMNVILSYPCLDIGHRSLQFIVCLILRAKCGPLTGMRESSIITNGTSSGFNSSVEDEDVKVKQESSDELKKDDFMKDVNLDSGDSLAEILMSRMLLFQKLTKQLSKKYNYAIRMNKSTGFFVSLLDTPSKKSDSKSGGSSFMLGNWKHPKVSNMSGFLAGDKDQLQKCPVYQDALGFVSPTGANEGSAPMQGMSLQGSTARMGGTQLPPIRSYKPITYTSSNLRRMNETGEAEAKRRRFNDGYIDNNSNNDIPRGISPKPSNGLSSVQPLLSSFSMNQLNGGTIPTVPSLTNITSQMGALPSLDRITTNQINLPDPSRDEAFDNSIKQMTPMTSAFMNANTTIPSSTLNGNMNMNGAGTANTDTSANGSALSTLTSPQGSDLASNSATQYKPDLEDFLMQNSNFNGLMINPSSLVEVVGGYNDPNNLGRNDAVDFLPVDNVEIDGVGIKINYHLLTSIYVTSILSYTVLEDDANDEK", "test": "PBM E-score (8-mer binding enrichment) (E-score (-0.5 to 0.5)); higher = stronger / more preferred TF binding; most listed sequences are background and not binding sites", "details": "protein concentration: 200 nM; construct: GST-DNA-binding domain", "in_short": "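Yeast transcription factors carrying a GST tag, as full-length proteins or DNA-binding domains, were produced by PURExpress in vitro transcription/translation. About 100-200 nM protein was applied to universal all-10-mer Agilent arrays, double-stranded by primer extension on fresh or once-stripped slides. Bound protein was detected with fluorescent anti-GST, and scans were normalised with masliner. The Universal PBM Analysis Suite gave each ungapped eight-base word, pooled with its reverse complement, an E-score, a modified Wilcoxon-Mann-Whitney statistic.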", "values": [{"sequence": "AGATAAGA", "PBM E-score": 0.062}, {"sequence": "AGCGCAGC", "PBM E-score": -0.0998}, {"sequence": "CTTACAGA", "PBM E-score": -0.141}, {"sequence": "CAATGCAG", "PBM E-score": -0.128}, {"sequence": "AGGAGCAT", "PBM E-score": -0.14}, {"sequence": "AGTTAACC", "PBM E-score": 0.184}, {"sequence": "CGAGACGC", "PBM E-score": 0.155}, {"sequence": "AATACATT", "PBM E-score": -0.126}, {"sequence": "CGCATAGA", "PBM E-score": -0.00989}, {"sequence": "AAACGCTT", "PBM E-score": -0.151}, {"sequence": "TCTTAACA", "PBM E-score": -0.321}, {"sequence": "CACTTGAA", "PBM E-score": -0.291}, {"sequence": "TCGGGTCA", "PBM E-score": 0.356}, {"sequence": "CGCTATAA", "PBM E-score": 0.0954}, {"sequence": "ATCCGCCG", "PBM E-score": 0.375}, {"sequence": "AGTTGTTA", "PBM E-score": -0.108}, {"sequence": "AAGCGTGT", "PBM E-score": -0.12}, {"sequence": "AGCCAGTG", "PBM E-score": -0.128}, {"sequence": "CCCTGCGG", "PBM E-score": 0.133}, {"sequence": "AACACTCT", "PBM E-score": -0.0636}, {"sequence": "ACAATGTC", "PBM E-score": -0.108}, {"sequence": "AAAAGTGG", "PBM E-score": 0.0261}, {"sequence": "CCAAATGC", "PBM E-score": -0.0569}, {"sequence": "AGTACTAT", "PBM E-score": -0.151}, {"sequence": "ATTACTCA", "PBM E-score": -0.105}, {"sequence": "ACTATGCC", "PBM E-score": -0.0432}, {"sequence": "GACCGATC", "PBM E-score": 0.341}, {"sequence": "ATTGAATG", "PBM E-score": -0.104}, {"sequence": "AAGGTCCA", "PBM E-score": 0.00642}, {"sequence": "GTGTTGAA", "PBM E-score": -0.109}, {"sequence": "AGAAGCCC", "PBM E-score": 0.224}, {"sequence": "CATAGGTC", "PBM E-score": -0.118}, {"sequence": "GGGCCCCA", "PBM E-score": 0.00501}, {"sequence": "CAAGTACG", "PBM E-score": -0.309}, {"sequence": "AGTCCTCA", "PBM E-score": 0.0165}, {"sequence": "ATCCTGCA", "PBM E-score": -0.24}, {"sequence": "CGCAGACG", "PBM E-score": -0.0806}, {"sequence": "CAGACGAG", "PBM E-score": -0.149}, {"sequence": "CGCTTAAC", "PBM E-score": 0.0905}, {"sequence": "CCGTATCG", "PBM E-score": 0.225}, {"sequence": "CCGCGCAG", "PBM E-score": 0.183}, {"sequence": "ATTCGCGC", "PBM E-score": 0.116}, {"sequence": "CCGTCGTC", "PBM E-score": 0.151}, {"sequence": "GGGCCACA", "PBM E-score": 0.0584}, {"sequence": "CCCCCTTA", "PBM E-score": -0.257}, {"sequence": "AGCTTGAC", "PBM E-score": -0.138}, {"sequence": "GAATCACA", "PBM E-score": 0.13}, {"sequence": "CCCTACTC", "PBM E-score": -0.0316}, {"sequence": "AATCTACA", "PBM E-score": -0.125}, {"sequence": "AGTGACAC", "PBM E-score": -0.105}, {"sequence": "ACCTTAGG", "PBM E-score": -0.0886}, {"sequence": "GGCGTTAC", "PBM E-score": 0.185}, {"sequence": "ACGTAGGC", "PBM E-score": -0.231}, {"sequence": "AGATACCG", "PBM E-score": 0.319}, {"sequence": "CAATCGTC", "PBM E-score": -0.167}, {"sequence": "CTTACATA", "PBM E-score": -0.153}, {"sequence": "ACGAAGGG", "PBM E-score": -0.224}, {"sequence": "TACTTTCA", "PBM E-score": -0.0123}, {"sequence": "CCGTCACA", "PBM E-score": 0.152}, {"sequence": "AACCTATC", "PBM E-score": -0.00501}, {"sequence": "AAAGCTCT", "PBM E-score": 0.0172}, {"sequence": "CTTGGCTC", "PBM E-score": -0.069}, {"sequence": "AGCGGAGG", "PBM E-score": 0.158}, {"sequence": "AACATCAC", "PBM E-score": -0.179}, {"sequence": "GGAATCGA", "PBM E-score": 0.0799}, {"sequence": "GTATCACA", "PBM E-score": -0.111}, {"sequence": "TTACAGAA", "PBM E-score": -0.277}, {"sequence": "ATACACAC", "PBM E-score": -0.235}, {"sequence": "AGTCGTGG", "PBM E-score": -0.137}, {"sequence": "GAACAAAC", "PBM E-score": 0.114}, {"sequence": "CAAAGGGA", "PBM E-score": -0.382}, {"sequence": "TGCGTTAA", "PBM E-score": -0.0556}, {"sequence": "ACGGCGGA", "PBM E-score": 0.273}, {"sequence": "CCGGGCCC", "PBM E-score": 0.369}, {"sequence": "AGTACCAA", "PBM E-score": 0.0324}, {"sequence": "AGCACGTC", "PBM E-score": -0.0296}, {"sequence": "CACGGTTA", "PBM E-score": 0.145}, {"sequence": "CCATAGAA", "PBM E-score": -0.186}, {"sequence": "CAAATTCC", "PBM E-score": 0.199}, {"sequence": "AGCCGATA", "PBM E-score": 0.427}, {"sequence": "GGTCTGAA", "PBM E-score": -0.0614}, {"sequence": "CTTGACTC", "PBM E-score": -0.17}, {"sequence": "GCTGTGGA", "PBM E-score": 0.0167}, {"sequence": "ACAGACGG", "PBM E-score": -0.117}, {"sequence": "AAATGGCC", "PBM E-score": 0.135}, {"sequence": "ACTTACGG", "PBM E-score": 0.293}]}]}
